Measurements reported in patent US20250074972A1, “ANTIBODIES AND METHODS FOR GENERATING THE SAME” (priority 2021, published 2025).

T1: immobilised Phr2 peptide (Candida albicans, UniProt O13318)
T1 construct: purchased
T1 sequence (O13318 whole entry, looked up): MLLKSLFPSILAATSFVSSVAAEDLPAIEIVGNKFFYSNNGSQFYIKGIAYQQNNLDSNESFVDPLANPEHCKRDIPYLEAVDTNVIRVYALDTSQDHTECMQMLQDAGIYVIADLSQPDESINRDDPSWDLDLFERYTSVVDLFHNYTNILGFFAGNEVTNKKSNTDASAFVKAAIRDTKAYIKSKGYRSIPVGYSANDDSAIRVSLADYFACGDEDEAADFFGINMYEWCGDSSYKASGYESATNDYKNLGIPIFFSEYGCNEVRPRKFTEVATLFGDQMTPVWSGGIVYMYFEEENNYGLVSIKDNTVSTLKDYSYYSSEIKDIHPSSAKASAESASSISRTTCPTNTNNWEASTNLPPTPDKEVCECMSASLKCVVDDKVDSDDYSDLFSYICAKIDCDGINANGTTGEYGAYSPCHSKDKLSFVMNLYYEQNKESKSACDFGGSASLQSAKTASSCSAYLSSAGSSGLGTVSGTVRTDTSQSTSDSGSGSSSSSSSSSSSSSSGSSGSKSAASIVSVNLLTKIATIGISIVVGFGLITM


What was measured:
other CWP peptides = assay: Phr2 scAbs cross reactivity ELISA, other CWP peptides; type: binding, Candida albicans
immobilised Phr2 peptide = target: T1, immobilised Phr2 peptide; assay: Phr2 scAbs binding ELISA, immobilised Phr2 peptide
[1] = tested on: cell lysates of pga314 mutant strain; assay: Pga31 scAbs binding ELISA on cell lysates of pga31 mutant strain; set-up: species or system Candida albicans; details: with or without 0.032 μg/ml caspofungin
Protocol: (§1) The reaction was stopped using 1 M H2SO4 and the absorbance values measured using a microplate reader at absorbance 450 nm. For total cell lysate ELISA, C. albicans WT and pga31 single mutant strain overnight cultures were inoculated into fresh YPD at OD600 nm of 0.1-0.2, grown for 3-4 h at 30° C. until OD of 0.5-0.6 was reached and then treated with caspofungin (0.032 μg/ml) for 90 min. After 90 min growth cells were harvested, centrifuged for 5 min at 4000 rpm and washed and cell lysate was prepared. This was used to coat ELISA plates at 37° C. for 1 h, plates were washed and blocked with 2% MPBS as before, followed by the two-fold serial dilution of scAb samples.

[2] = tested on: total cell lysates of WT C. albicans (SC5314); assay: Pga31 scAbs binding ELISA on total cell lysates of WT C. albicans treated with or without caspofungin; set-up: species or system Candida albicans; details: absorbance 450 nm, cells treated or untreated with 0.032 μg/ml caspofungin
Protocol: as §1

Row | Molecule | cross reactivity to other CWP peptides (other CWP peptides) | binding to immobilised Phr2 peptide (immobilised Phr2 peptide) | scAb binding to mutant strain lysate [1] | scAb binding to lysates of caspofungin treated versus untreated cells [2]
1 | 3C5: Phr2 antibody; SEQ ID NO: 32 (protein, 3C5 Amino Acid Sequence) scFv: EVQLLESGGGVVQPGRSLRLSCAASGFTFSSYGMHWVRQAPGKGLEWVAVISYAGSNKYYADSVKGRFTISRDNSKNTLYLQMNSLRAEDTAVYYCAKGQRMDVWGKGTMVTVSSLEGGGGSGGGGSGGGAS[letters of about 100 residues omitted] | No cross reactivity | Specific binding | – | –
2 | 1G4: anti-Pga31 single chain antibody; SEQ ID NO: 4 (protein, 1G4 Amino Acid Sequence) scFv: EVQLLESGGGLVQPGGSLRVSCAASGFTFNSYAMSWVRQAPGKGLEWVSTVSGSGGSTYYADSVKGRFTISRDNSKNTLYLQMNSLRAEDTAVYYCARGYFDLWGRGTLVTVSSLEGGGGSGGGGSGGGAS[letters of about 100 residues omitted] | – | – | lack of scAb binding | increase in scAb binding
